Source: PubChem BioAssay AID1508642 (National Center for Advancing Translational Sciences (NCATS), 2021)
Among all 43,000 compounds or so, about 200 (0.47%) were called active. Inconclusive results, whose numbers are uncertain, are shown with a selection of clear calls. The call rests on the fitted dose curve; in most records, active means well fitted cell-killing curve with a large enough effect; inconclusive means small, poorly fitted or top-dose-only effect, or effect the other way; inactive means flat fitted curve, though single readings scatter. Where the call is inconclusive, the potency comes from a doubtful curve fit.

Assay: Cell viability qHTS assay in S16 Pmp22-F2sN cells; further: nearly all actives have a fitted effect of over 65% in size
Settings: S16 Pmp22-F2sN Schwann cells (luciferase reporters placed in the Pmp22 gene) viability, CellTiter-Glo, 24 h; activity change, negative = cytotoxicity: at 57.5 µM (top of the series)
In short: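 Rat S16 Schwann reporter line, 24 h treatment with library compounds delivered at 23 nL per well. Cell viability by CellTiter-Glo luminescence.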
On the % scale 0 is the no-effect control and ±100 the full control effect; potency means the concentration at half of the fitted maximal effect; tags describe the fitted curve by direction and shape.

SMILES	Potency	activity change, negative = cytotoxicity
Cn1cnc(S(=O)(=O)N2CCC(C(=O)NCc3ccc(Cl)cc3)CC2)c1	inconclusive: 0.0282 µM [cytotoxic, full curve, poor fit]	
Cc1ccccc1-c1nnc(C2CCN(S(=O)(=O)c3ccc(Cl)cc3)CC2)o1	inconclusive: 39.8 µM [cytotoxic, single point]	
O=C(CSc1nc(-c2ccccc2)[nH]c1-c1ccccc1)Nc1ccc2c(c1)OCCO2	inconclusive: 25.1 µM [cytotoxic, single point]	
O=S(=O)(c1ccccc1)N1CCC(c2ccncc2)CC1	inconclusive: 31.6 µM [cytotoxic, single point]	
CC(=O)c1cc(-c2ccc(F)cc2)n(CCC(=O)Nc2nc3c(C)cccc3s2)c1C	inconclusive: 5.62 µM [rising, full curve, poor fit]	
CCOc1ccc(CNC(=O)Cn2nc(C)c3nn(-c4ccc(Cl)cc4)c(C)c3c2=O)cc1OC	inconclusive: 28.2 µM [cytotoxic, single point]	
COc1ccc(C(=O)Nc2ccc(-n3nncc3-c3ccc(OC)c(OC)c3)cc2)cc1	inconclusive: 25.1 µM [cytotoxic, single point]	
CCc1ccc(NC(=O)c2cc3c(=O)n(Cc4cccs4)ccc3nc2C)cc1	inconclusive: 39.8 µM [cytotoxic, single point]	
CCOc1ccc(-c2nc3c(C#N)c[nH]n3c2NC2CCCC2)cc1	inconclusive: 28.2 µM [cytotoxic, single point]	
COc1ccc(Nc2cc(C)nc(-n3nc(C)cc3C)n2)cc1Cl	inconclusive: 1 µM [cytotoxic, partial curve, poor fit]	
O=C(CN1C(=O)C(c2ccc(F)cc2)=NC12CCCCCC2)Nc1ccc(F)c(Cl)c1	inconclusive: 7.08 µM [cytotoxic, full curve, poor fit]	
COc1cc(-c2cc(OC)c3c(C)oc(C)c3c(=O)c2)ccc1OC(=O)c1ccccc1C		inactive: -22.8%
CCn1c(=NC(=O)c2ccc(S(=O)(=O)N3CCCCC3)cc2)sc2cccc(OC)c21	inconclusive: 12.6 µM [cytotoxic, partial curve, poor fit]	
O=S(=O)(NCC(c1ccco1)S(=O)(=O)c1ccccc1)c1ccccc1 (stereo unspecified)	inconclusive: 39.8 µM [cytotoxic, single point]	
COc1ccc(CNC(=O)Cn2c(=O)oc3cc(S(=O)(=O)N4CCCCCC4)ccc32)cc1	inconclusive: 22.4 µM [cytotoxic, single point]	
Cc1cc(N2CCN(C)CC2)nc2ccc(NC(=O)Nc3ccccc3Br)cc12	inconclusive: 39.8 µM [cytotoxic, single point]	
CCCOc1ccc(-c2nc3ccccc3c(=O)o2)cc1		inactive: 8.46%
Cc1cccc(NC(=O)C2CCN(S(=O)(=O)c3cccc4nsnc34)CC2)c1		inactive: 4.81%
CCOc1ccc(CC(=O)Nc2ccc3c(c2)N(C)C(=O)c2ccccc2S3)cc1OCC	inconclusive: 39.8 µM [cytotoxic, single point]	
CCCN1C(=O)C(O)(CC(=O)c2ccc(CC)cc2)c2cc(Br)ccc21 (stereo unspecified)	inconclusive: 22.4 µM [cytotoxic, partial curve, poor fit]	
O=S(=O)(NCC(c1ccccc1)N1CCc2ccccc21)c1ccccc1 (stereo unspecified)	inconclusive: 15.8 µM [cytotoxic, partial curve, poor fit]	

SMILES	Potency	activity change, negative = cytotoxicity
COc1ccc(-c2nc3ccccc3s2)cc1NC(=O)c1cccc([N+](=O)[O-])c1C		inactive: -0.767%
COc1cc(C(=O)N2CCC(c3nc4ccccc4s3)CC2)cc(OC)c1OC	inconclusive: 31.6 µM [cytotoxic, single point]	
CCn1c(=O)cc(OCC(=O)N2CCN(c3cccc(Cl)c3)CC2)c2ccccc21	inconclusive: 17.8 µM [cytotoxic, single point]	
COc1ccc(-c2cc3nc(C)c(CCC(=O)N4CCN(c5ccccc5F)CC4)c(C)n3n2)c(OC)c1		inactive: 18%
Cc1ccc(CNc2ncnc3onc(C)c23)cc1	inconclusive: 12.6 µM [cytotoxic, partial curve, poor fit]	
CCOc1cc(C(=O)NCc2nc(-c3cccc(C)c3)no2)cc(OCC)c1OCC	inconclusive: 0.0355 µM [rising, full curve, poor fit]	
CCCOc1ccc(C2c3c(-c4ccccc4O)n[nH]c3C(=O)N2Cc2cccnc2)cc1 (stereo unspecified)	inconclusive: 39.8 µM [cytotoxic, single point]	
Cc1ccc(CN2c3ccccc3-c3nc(SCC(=O)Nc4c(C)cc(C)cc4C)ncc3S2(=O)=O)cc1	active: 28.2 µM	
COc1ccccc1CN1C(=O)C(=O)c2cccc(C)c21	inconclusive: 4.47 µM [rising, single point]	
COc1ccc(-n2ccnc(NCCc3ccc(Cl)cc3)c2=O)cc1OC	inconclusive: 39.8 µM [cytotoxic, single point]	
Cc1ccccc1Cn1c2ccccc2c2cnn(CC(=O)N3CCC(C)CC3)c(=O)c21	inconclusive: 22.4 µM [cytotoxic, single point]	
Cc1ccc(S(=O)(=O)NCC(Nc2cccc(Cl)c2)c2ccccc2)cc1 (stereo unspecified)		inactive: -26.8%
COc1ccc(-c2cc3nccc(-c4cc(Cl)c(C)cc4O)n3n2)cc1	inconclusive: 3.55 µM [rising, partial curve]	
Cc1cccc(NC(=O)c2ccc3nc(CCc4ccccc4)oc3c2)c1C		inactive: -3.45%
COc1ccccc1C(=O)Nc1onc2c1CCCC2	inconclusive: 3.55 µM [rising, single point]	
CCOc1ccccc1C(=O)Nc1ccc2nc3c(c(Nc4ccc(OC)c(OC)c4)c2c1)CCCC3	inconclusive: 31.6 µM [cytotoxic, single point]	
CCOc1ccc(C(=O)c2cn(CC(=O)Nc3ccc(F)c(F)c3)c3cc4c(cc3c2=O)OCCO4)cc1	inconclusive: 17.8 µM [cytotoxic, partial curve, poor fit]	
CCCCOC(=O)c1ccc(Nc2ncnc3c2cnn3-c2cccc(C)c2)cc1		inactive: 3.15%
Cc1ccc(CSc2nc3cccnc3n2Cc2ccc(C(=O)NC3CCCCC3)cc2)cc1		inactive: -2.68%
CCOC(=O)c1ccc(NC(=O)CCc2nc3cccnc3n2Cc2cccs2)cc1		inactive: -6.73%
CSc1ccc(CCNC(=O)c2c(C)oc3ncn(C)c(=O)c23)cc1	inconclusive: 15.8 µM [cytotoxic, partial curve, poor fit]	

SMILES	Potency	activity change, negative = cytotoxicity
COc1ccc(CCN2CCC(CNC(=O)c3cnn(-c4cccc(Cl)c4)c3C3CCN(C(=O)OC(C)(C)C)CC3)CC2)cc1	inconclusive: 28.2 µM [cytotoxic, single point]	
COc1ccc(N2CCN(C(=O)C3CCN(c4nc5ccc(C)cc5[nH]4)CC3)CC2)cc1	inconclusive: 17.8 µM [cytotoxic, partial curve, poor fit]	
COc1cccc(CNC(=O)Cn2c(=O)oc3cc(S(=O)(=O)N4CCCCCC4)ccc32)c1	inconclusive: 22.4 µM [cytotoxic, partial curve, poor fit]	
COc1ccc(-c2nc(CSCC(=O)N3CCN(c4ccccc4)CC3)c(C)o2)cc1	inconclusive: 39.8 µM [cytotoxic, single point]	
Cc1cc(C)cc(-n2c(SCC(=O)NC3CCCCC3)nc3c([nH]c4ccccc43)c2=O)c1	inconclusive: 0.891 µM [rising, full curve, poor fit]	
O=C(Cn1c(-c2cccs2)cc2ccccc21)NCCCN1CCN(c2ccccc2F)CC1	inconclusive: 39.8 µM [cytotoxic, single point]	
Cc1ccc(NC(=O)c2c(NC(=O)C(F)(F)F)sc3c2CCCCC3)cc1	inconclusive: 7.94 µM [cytotoxic, full curve, poor fit]	
N#Cc1c[nH]n2c(NC3CCCC3)c(-c3ccc(Cl)cc3)nc12	inconclusive: 25.1 µM [cytotoxic, single point]	
Cc1cc(Nc2cc(F)ccc2C)nc(-n2nc(C)cc2C)n1	inconclusive: 2 µM [cytotoxic, full curve, poor fit]	
Cc1c(C(=O)N2CCC(C)CC2)c(S(=O)(=O)Nc2ccc(OC(F)(F)F)cc2)c(C)n1C		inactive: 5.22%
O=C(Nc1ccc(C(F)(F)F)cc1)C(Cc1ccccc1)n1cccc1 (stereo unspecified)	inconclusive: 39.8 µM [cytotoxic, single point]	
O=C(NCCCN1CCN(c2ccccc2F)CC1)c1ccc2nc(N3CCCCC3)sc2c1	inconclusive: 39.8 µM [cytotoxic, single point]	
Cc1cc2c(cc3c(SCc4ccccc4Cl)nnc(C)n32)o1	inconclusive: 31.6 µM [cytotoxic, single point]	
CCN(C(=O)C1CCCN(c2ncnc3c2nc2n3CCCCC2)C1)c1cccc(Cl)c1 (stereo unspecified)	inconclusive: 22.4 µM [cytotoxic, partial curve, poor fit]	
Cc1c(CCNC(=O)C(C)(C)C)sc2nc(-c3ccc(F)cc3)nn12	inconclusive: 39.8 µM [cytotoxic, single point]	
CCCCn1c(=N)n(CCOc2ccccc2OC)c2ccccc21	inconclusive: 28.2 µM [cytotoxic, single point]	
Cc1ccc(CSc2nc(-c3ccccc3C)nc3c2Cc2c(CO)cnc(C)c2O3)cc1	inconclusive: 28.2 µM [cytotoxic, single point]	
Cc1ccccc1OCC(=O)OCc1cc(=O)n2nc(-c3cccs3)sc2n1	inconclusive: 20 µM [rising, partial curve]	
COc1ccc(-n2nc3c(N4CCCC(C(=O)NCCc5ccccc5C)C4)nnc(C)c3c2C)cc1 (stereo unspecified)	inconclusive: 39.8 µM [cytotoxic, partial curve, poor fit]	
